Results published in PubChem BioAssay AID743279 (National Center for Advancing Translational Sciences (NCATS), 2014).
Hit rate of the full screen: of about 360,000 compounds, about 17,000 (4.7%) were called active. This list was built around the results that the source calls inconclusive (neither active nor inactive); the mix of calls is not that of the screen. Cut-off read from the data, not from the text of the source: active = activity change below about -50%; inconclusive = mostly about -30% to -49%; inactive = weaker than that.

assay: qHTS for Inhibitors of Inflammasome Signaling: IL-1-beta AlphaLISA Primary Screen; details: THP-1 LPS/ATP IL-1B secretion, 16 h; at 57.5 µM, active compounds read low
Description: Inflammasomes are a set of intracellular multi-protein complexes that enable autocatalytic activation of inflammatory caspases and drive the innate immune response to counter harmful agents. […] A qHTS assay, based on AlphaLISA technology, was developed to screen the Molecular Libraries Small Molecule Repository (MLSMR) to look for novel inflammasome inhibitors. The assay detects IL-1B using AlphaLISA anti-IL-1B acceptor and donor beads. A decreased emission signal, indicating reduced IL-1B secretion, is the desired outcome for this assay. NIH Chemical Genomics Center [NCGC] NIH Molecular Libraries Probe Centers Network [MLPCN] MLPCN Grant: MH095513 Assay Provider: Shyam Biswal Ph.D., Johns Hopkins University Immunity. 2012 Jul 27;37(1):85-95. PMID: 22819042 [2] Curr Pharm Des. 2012;18(16):2320-8. PMID: 22390695
Three microliters containing 3000 THP-1 cells were dispensed into the wells of solid, white, tissue culture treated Greiner 1,536-well plates. Library compounds and positive control, Glyburide, were pin-transferred (23 nL) by a Kalypsys pin-tool equipped with a 1,536-pin array, resulting in final compound concentration ranges of 2.5 nM to 57.5 uM. After 1 hr of cell culture incubation (37 °C, 5% CO2), 1 microL of 1 microg/mL lipopolysaccharide (250 ng/mL, final) and 5 mM ATP (1.25 mM, final) were added to stimulate the cells. After 16 hr of cell culture incubation with the compounds, 1.5 uL of anti-IL-1B acceptor beads (6 ug/mL, final) and biotinylated antibody (0.6 nM, final) were added to the plate, followed by a 1 hr incubation at ambient temperature. To detect the secreted IL-1B, 1.5 uL of AlphaLISA SA-Donor beads (24 ug/mL, final) were added, followed by 30 min of incubation in the dark at ambient temperature. The AlphaLISA signal was read by a PerkinElmer EnVision plate reader with an ultrasensitive luminescence detector and 1536 Plate HTS AlphaScreen aperture (excitation of 680nm and emission of 615nm).
% is set by controls: 0 for no effect and ±100 for the full control effect.

Structure (SMILES) | activity change
COC(=O)C(NC(=O)CCc1c(C)nc2c(c(C)nn2-c2ccccc2)c1C)C(C)C (configuration not stated) | inactive: 30.9%
Cc1ccccc1NC(=O)N1CCC(C(=O)c2ccc(F)cc2)CC1 | inconclusive: -30.8%
Cc1cc(C)c(S(=O)(=O)/N=C2/C=C(SCC(=O)O)C(=O)c3ccccc32)cc1C | inconclusive: -49.3%
COCC(C)NC(=O)CCSc1nc(-c2ccc(OC)cc2)cc(C(F)(F)F)n1 (configuration not stated) | active: -57.4%
COc1ccc(-c2cc(NC=O)c3ncc(-c4ccccc4)n3c2)cc1OC | active: -59.3%
COc1cccc(C(c2nnnn2CS(=O)(=O)c2ccc(C)cc2)N2CCN(C)CC2)c1OC (configuration not stated) | inconclusive: -40.4%
CCOC(=O)C(C)Oc1cccc2c(=O)n(CC(=O)NCCc3ccc(OC)c(OC)c3)ccc12 (configuration not stated) | inconclusive: -48.1%
Cc1ccccc1CS(=O)(=O)CCC(=O)NCCN1CCN(c2cccc(Cl)c2)CC1 | inconclusive: -38.7%
Cc1ccc(C)c(N2CCN(CCCNC(=O)Cn3cc4c(n3)CCCCC4)CC2)c1 | inconclusive: -36.7%
COc1ccc(N2C(=O)/C(=C/c3ccc([N+](=O)[O-])cc3)C=C2c2ccccc2)cc1 | inconclusive: -32.4%
COc1cc2sc3cc(NCc4ccc(C)o4)ccc3c(=O)c2cc1OC | active: -68.8%
CC1(c2nc3ccccc3[nH]2)CCCC2=Nc3ccccc3CN21 (configuration not stated) | inactive: -13.8%
O=C(CN(C(=O)CCC(=O)Nc1nccs1)c1ccc(F)c(Cl)c1)NCc1ccco1 | inconclusive: -45.1%
COc1ccc(CN2CCC(n3nccc3NC(=O)c3ccc4c(c3)OCO4)CC2)cc1C | inconclusive: -34.8%
O=C(N/N=C/c1cn(-c2cccs2)nc1-c1ccccc1)c1ccccc1Br | inconclusive: -41.5%
O=C(COC(=O)c1ccc(O)cc1O)N=c1sccn1Cc1ccccc1Cl | inconclusive: -33.8%
c1ccc(-n2cnc3cc(NCc4ccccn4)ccc32)cc1 | inconclusive: -31.6%
O=S1(=O)CC/C(=N\Nc2ccc(F)cc2)c2ccsc21 | inconclusive: -31.7%
O=C(CCN1CCOCC1)Nc1cc(C(=O)Nc2ccc(Cl)cc2)ccc1N1CC2CC(C1)c1cccc(=O)n1C2 (configuration not stated) | active: -63.1%
O=C1c2cccc3cccc(c23)C(c2nc3ccccc3[nH]2)N1C1CC1 (configuration not stated) | inactive: -14.8%
CCN1CCN(C(=O)c2cnn3c(C(F)F)cc(-c4ccc(C)cc4)nc23)CC1 | inconclusive: -32.6%

Structure (SMILES) | activity change
c1cncc(-c2nnc(-c3cccs3)o2)c1 | inactive: 12.1%
COc1nc(C)nc2c1sc1nc3c(cc12)COC(C)(C)C3 | active: -51.3%
CCN(CCNC(=O)C1CCN(Cc2nc(-c3cccc(Cl)c3)oc2C)CC1)c1ccccc1 | inconclusive: -49.4%
Cc1ccc2c3c1C1(C(=O)N3C(C)(C)CC2C)C(C#N)=C(N)Oc2cc(O)ccc21 (configuration not stated) | inconclusive: -47.9%
O=C1NC[C@H](Cc2ccccc2)N(C[C@@H]2CCCN2C[C@H](Cc2ccc(O)cc2)N2C[C@H](Cc3ccc(O)cc3)N(CC3CCCCC3)C(=O)C2=O)C1=O | inconclusive: -31.5%
O=C(CSc1nnc(CCc2ccccc2)n1-c1ccc(Cl)cc1)c1ccccc1 | active: -63.7%
O=C(CCCSc1ccccc1)Nc1nc(-c2ccco2)c(-c2ccco2)s1 | inconclusive: -44.4%
CN(C)CCCn1c(N)c(C#N)c2nc(C#N)c(C#N)nc21 | active: -105%
Cc1cc(Br)c(NC(=O)CCl)c(Br)c1 | inconclusive: -47.8%
O=C(O)c1cccc(NC(=O)c2ccc3c(c2)C(=O)N(c2ccccc2)C3=O)c1 | inactive: 4.59%
CC(=O)c1cccc(NC(=O)CSc2nc(=O)n(CCN3CCOCC3)c3c2CCCC3)c1 | inconclusive: -33.9%
CCOC(=O)c1nnc(-c2ccccc2)nc1Sc1ccccc1Cl | active: -116%
O=C(Cn1ccc(=O)[nH]c1=O)c1ccc([N+](=O)[O-])o1 | inconclusive: -41.7%
O=C(C1CCCN(S(=O)(=O)c2cccc3nsnc23)C1)N1CC=C(c2ccccc2)CC1 (configuration not stated) | active: -54.8%
Cn1nc(C(=O)N2CCN(c3ccc(F)cc3)CC2)c2c1-c1ccccc1S(=O)(=O)C2 | inconclusive: -34.4%
COc1cc(OC)cc(C(=O)N[C@H](C(=O)OCC(=O)Nc2ccc(F)c(F)c2F)C(C)C)c1 | inactive: 28.2%
CN(Cc1ccccc1)CC(O)COc1ccc(CNCc2ccc(Cl)s2)cc1 (configuration not stated) | active: -80.1%
CCc1cc(=O)oc2cc(C)cc(OCC(=O)N3CCC(C(=O)NC(C)C)(c4ccccc4)CC3)c12 | inconclusive: -38%
COC(=O)[C@@]12C[C@@H](CC(=O)NCc3ccc(C)o3)C(=O)N(Cc3ccco3)C1=CCC(C)(C)C2 | inactive: -10.8%
CC(=O)C1=C(C)NC(SCC(=O)Nc2nccs2)=C(C#N)C1c1ccccc1Cl (configuration not stated) | inconclusive: -45.9%
Cc1ccc(-c2nn(-c3cccc(F)c3)cc2CN(Cc2nccn2C)C(C)C)o1 | active: -96.5%

Structure (SMILES) | activity change
CC(=O)Nc1cc2c(cc1[N+](=O)[O-])-c1ccccc1C2O (configuration not stated) | inconclusive: -47.4%
Cc1cccc(-n2ncc3c(N4CCC(C)CC4)ncnc32)c1 | inconclusive: -31.7%
CC(C)Oc1ccc(CC2CCC(=O)N(C)C2=O)cc1 (configuration not stated) | inactive: 12.2%
N=c1c(C(=O)NCC2CCCO2)cc2c(=O)n3ccccc3nc2n1Cc1ccco1 (configuration not stated) | inactive: 28.2%
COc1ccc(NC(=O)N2CCN(c3ccc([N+](=O)[O-])cc3)CC2)cc1OC | inconclusive: -40.4%
CNC(=O)C1C(=S)NC(N)=C(C#N)C1c1ccccc1 (configuration not stated) | inconclusive: -44.3%
O=C(CNC(=O)c1ccccc1F)NCCCN1CCCC1=O | inactive: -7.99%
Cc1ccc(S(=O)(=O)NN2C(=O)c3ccccc3NC2c2ccccc2O)cc1 (configuration not stated) | inactive: -10.1%
CS(=O)(=O)Nc1cccc(C2=NN(S(=O)(=O)c3ccc(F)cc3)C(c3cccs3)C2)c1 (configuration not stated) | inconclusive: -48%
COc1ccc(-c2ccc(C(=O)NCc3ccc(F)c(F)c3)c3occc23)c(C)c1 | active: -59.1%
Cc1nc2ccccn2c1C(=O)N/N=C/c1ccccc1[N+](=O)[O-] | inactive: 17.5%
Cc1sc2nc3c(C(=O)N4CCCC4)cc(C(=O)c4ccccc4O)cn3c(=O)c2c1C | inconclusive: -35%
Cc1nc(N2CCN(Cc3ccccc3)CC2)nc2c1C(=O)CC(c1ccco1)C2 (configuration not stated) | inconclusive: -30.5%
Cc1c(NS(=O)(=O)c2ccc(NC(=O)CCC(=O)O)cc2)c(=O)n(-c2ccccc2)n1C | active: -71.1%
Clc1cccc(Cc2c(-c3ccco3)nc3ccc(Cl)cn23)c1 | active: -58.6%
COc1ccc(-c2ccc(=O)n(CC(=O)NC3CCc4ccccc43)n2)cc1OC (configuration not stated) | inconclusive: -37.5%
CCC[C@H](CN[C@@H](CNC)[C@H](C)CC)NCCc1cc(C(F)(F)F)cc(C(F)(F)F)c1 | active: -99.7%
COCc1cc(C)nc2sc(C(=O)N3CCN(c4ccccc4)CC3)c(N)c12 | inconclusive: -31%
O=C(c1cccc(Cl)c1)N1CCC(=O)N([C@H](COCc2ccccc2)Cc2ccccc2)CC1 | inconclusive: -36.5%
CCNC(=O)Cc1ccc(Br)cc1 | inactive: 0%
O=Cc1cn(CC(=O)Nc2ccc(F)cc2)c2ccccc12 | inactive: 32.3%

Structure (SMILES) | activity change
CCc1ccc(CN2CCCC(CNC(=O)c3cc(OC)cc(OC)c3)C2)cc1 (configuration not stated) | inconclusive: -43.4%
COc1ccc(C2CC(c3c(-c4ccccc4)c4cc(Cl)ccc4[nH]c3=O)=NN2S(C)(=O)=O)cc1OC (configuration not stated) | inconclusive: -32%
COc1cc(Cl)cc(/C=C/c2ccc3ccccc3n2)c1OC(C)=O | active: -102%
CC(C)(C)n1ncc2c(=O)n(Cc3ccc(Cl)cc3)cnc21 | inconclusive: -37.1%
O=C(NCC1CCCO1)c1ccc(Cl)c(S(=O)(=O)N2CCCCC2)c1 (configuration not stated) | inactive: 9.8%
CCOC(=O)N1CCN(C(=O)COc2ccc3ccccc3c2Br)CC1 | inconclusive: -40.3%
O=c1nc(NC2CCCC2)ccn1Cc1cccc(Br)c1 | inconclusive: -32.4%
O=C1CC(N2CCN(c3ccc(S(=O)(=O)N4CCCC4)cc3)CC2)C(=O)N1c1ccc(F)cc1 (configuration not stated) | inactive: 6.73%
CCOC(=O)C1=C[C@@H](C(C)(C)C)N(S(=O)(=O)c2ccc(C)cc2)[C@H]1c1ccc(F)cc1 | inactive: 24.6%
Cc1[nH]c2ccccc2c1C(=O)CN1CCCC(C)C1 (configuration not stated) | inconclusive: -44.2%
CCc1ccc(-c2nc(CN3CCC(C(=O)N4CCN(c5ccccn5)CC4)CC3)c(C)o2)cc1 | active: -52.7%
CCOc1cc(/C=C\[N+](=O)[O-])ccc1OCC(=O)N1CCOCC1 | active: -107%
O=C(N/N=C/c1ccc(O)cc1)c1ccc(NC(=O)c2ccccc2Br)cc1 | inactive: -22.6%
O=C(CNC(=O)c1ccc(F)cc1)N/N=C/c1cc(Br)ccc1OCc1ccccc1 | inconclusive: -47.4%
COc1ccc(-c2cc(-c3cc(C)ccc3O)[nH]n2)cc1 | inconclusive: -32.3%
COC(=O)[C@@]12C[C@@H](CC(=O)NCc3cccs3)C(=O)N(CCc3ccc(OC)c(OC)c3)C1=CCC(C)(C)C2 | inconclusive: -35%
CC(C)(C)NC(=O)CC(c1ccccc1)c1ccccc1O (configuration not stated) | inconclusive: -32.5%
Cc1cccc(NC(=O)c2ccc(C(=O)c3ccccc3)o2)c1 | inconclusive: -30.9%
C=CCc1ccc(OCCCCN2CCC(C)CC2)c(OC)c1 | inactive: -7.48%
